Test results published in paper PMC7083877.
Results are given in words; binding and its absence hold for the method and conditions named. Binding seen in cells or lysates may run through a third protein. Some entries that bind do so weakly or less than the wild type. Sequences can lack the tags named with a protein.

Molecular target: T1, Flag-SBDS (Flag-tagged pEnter-SBDS) (human) (UniProt Q9Y3A5)
T1 sequence: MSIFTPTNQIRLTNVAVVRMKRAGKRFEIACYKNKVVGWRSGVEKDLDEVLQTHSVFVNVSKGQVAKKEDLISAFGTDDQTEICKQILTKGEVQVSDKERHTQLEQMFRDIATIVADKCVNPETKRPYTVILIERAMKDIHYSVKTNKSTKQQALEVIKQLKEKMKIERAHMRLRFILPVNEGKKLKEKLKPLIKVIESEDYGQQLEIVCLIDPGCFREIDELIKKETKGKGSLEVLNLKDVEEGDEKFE
Assay: co-IP; H1299 cells transfected with the indicated plasmids; IP with anti-p53 (Fig. 6a) or anti-Flag (Fig. 6b), IB

With “p53 (exogenous, from the p53 plasmid) (from UniProt P04637 1-393)” the binding was “binds”.
